# Results taken from the supplement of paper PMC8728848.
# The other results are listed elsewhere or left out.
# B1: Cp ZmpB (Clostridium perfringens), Q0TR08 (protein)
# chain: MNKRKIAAIILATMITNLSATTIDVLAQELNTKNNSKVEVSHDDESHQARVSKFDLYNSDKLDAYNQEFQVSRSNIKSINNNGGKYNSSTIDKAIDGNLETHWETGKPNDANFTNEVVVTFNEITNIDRIVYSARRDSARGKGFAKEFEIYASLKDEGDDFNLVSSGEYTESTRDLVEIKFNPTDFKRLKFKFKKADQNWASAAEFMFYKEDKLNEKFNGLFTDSSMNKVSEEFNTLEKLNAFENELKDHPIYDLYKEGLNNARAILTETSENPTKATLGQITYNLNDDYNNQYRMPYKNIKAIKNNGRHYAAQNIEKAIDNDVNTYWETGTLNSSSFNNEVEVEFNDLVTLDRIVYGSRQSDLKGFAEEVYIYASRTSKGDTYKLVATGAHEATKGLVEAKFEPTEFKRVKFKFKKSKQNSATLNELMFYKPDEVYSSIPKLFTDGTMSELSEEFNSLEKINAFKEKAKNHPLYNDFNETIELAESLISNPRKEDVLELEMRGDSISEAKKRKVWNFQDWQITGLSARAGDKITVYVDVAEGDPTPTLLYKQSLTQHGGATSFQLKPGKNEITIPEINYESNGIPKDVIQGGDLFFTNYKSDSQKRAPKVRIEGASKYPVFILGKSDENEVMKELEAYVEKIKAEPKTTPNIFAVSSNKSLEFVQATYALDWYKKNNKTPKYTAEQWDQYIADAMGFWGFDNSKDVNSDFNFRIMPMVKNLSGGAFMNAGNGVIGIRPGNQDAILAANKGWGVAHELGHNFDTGGRTIVEVTNNMMPLFFESKYKTKTRITDQNIWENNTYPKVGLDDYSNNELYNKADSTHLAQLAPLWQLYLYDNTFYGKFERQFRERDFGNKNREDIYKSWVVAASDAMELDLTEFFARHGIRVDDKVKEDLAKYPKPDKKIYYLNDLAMNYKGDGFTENAKVSVSTSGSNGNIKLSFSVDDENKDNILGYEIRRDGKYVGFTSNDSFVDTKSNLDEDGVYVVTPYDRKLNTLNPIEVNALQPTLSVNPVITLALGEEFNEEEYIVAKDIKGNSLSESVKVKSSNVNTSKVGEYEVLYSLEDSKGNEYTKTSKVNVVSRKEYMSDLTPKQSSNGWGTVRKDKSISGGVIGLTRDGDFVDYNKGLGLHSNAEYVYDLEGKDYDYFESYVGVDKAMSSRPASSVIFKVLVDGEEKFNSGVMRSTTPQKYVKVDVKNAKELKLIVNDAGDGDSSDHASFGDAKLATLSSKPIIKGENLAYSMDEKVDLMKGITATDIEDGNITSKVQIKSSDFVEGKSGIFTVVYSVTDSDGLTSECSRTIAVTDKETQLSDLNWKSATIGSGSVRKDRAVSGNQIRLLNEDNSVETFAKGIGTHSYSEIVYNSEGYDIFDTWVGIDRHVADKKVSSVKFKVYVDGELKAETDVMRIDTPKKRLVVDVRNSKEIKLVVDVADNGNNWDHADWADAKFRNLAEYDASELNKAIEEAKKLDLNNYTEESSEALKNAISKGEEALLSKDKETINSALEELNKEMNSLVKVDLNAVINIPDKYLLKSIQNQLNKTGDITLGDMYSLTTLTLSGVEDLTGLENAKNLETLNMDYNEVKDLRPLSKLKKLNTLNAQEQFIAAGELKPSNGKVIGDSKVYNREGKNVAKTIRVVDKNGNTILEQDAKDEFTINTKDLSSGLYGVHVLFEDEGFSGVMFYLFNV
# Legend:
# Assay in all cases: glycan array binding signal (z-score within array); higher = stronger binding
# Conditions in all cases: glycan notation: IUPAC condensed, linker removed
# [1] = molecular target: Neu5Ac(a2-3)Gal(b1-4)GlcNAc(b1-3)[Neu5Ac(a2-3)Gal(b1-4)GlcNAc(b1-6)]GalNAc
# Method in brief: (§1)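 The binding signal is a Z-score computed within each array and averaged over linkers. Arrays of the same protein sequence at different concentrations or buffers were also averaged together. Data originate from 3228 arrays in the Consortium for Functional Glycomics database, kept only where the protein sequence was available.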
# [2] = molecular target: Neu5Ac(a2-3)Gal(b1-4)GlcNAc(b1-6)GalNAc
# Method in brief: as §1
# [3] = molecular target: Neu5Ac(a2-3)Gal(b1-4)GlcNAc(b1-6)[Gal(b1-3)]GalNAc
# Method in brief: as §1
# [4] = molecular target: Neu5Ac(a2-3)Gal(b1-4)GlcNAc(b1-6)[Neu5Ac(a2-3)Gal(b1-3)]GalNAc
# Method in brief: as §1
# [5] = molecular target: Neu5Ac(a2-3)Gal(b1-4)GlcNAc6S
# Method in brief: as §1
# [6] = molecular target: Neu5Ac(a2-3)Gal(b1-4)[Fuc(a1-3)]GlcNAc
# Method in brief: as §1
# [7] = molecular target: Neu5Ac(a2-3)Gal(b1-4)[Fuc(a1-3)]GlcNAc(b1-2)Man
# Method in brief: as §1
# [8] = molecular target: Neu5Ac(a2-3)Gal(b1-4)[Fuc(a1-3)]GlcNAc(b1-3)Gal
# Method in brief: as §1
# [9] = molecular target: Neu5Ac(a2-3)Gal(b1-4)[Fuc(a1-3)]GlcNAc(b1-3)Gal(b1-4)GlcNAc
# Method in brief: as §1
# [10] = molecular target: Neu5Ac(a2-3)Gal(b1-4)[Fuc(a1-3)]GlcNAc(b1-3)Gal(b1-4)[Fuc(a1-3)]GlcNAc(b1-3)Gal(b1-4)[Fuc(a1-3)]GlcNAc
# Method in brief: as §1
# [11] = molecular target: Neu5Ac(a2-3)Gal(b1-4)[Fuc(a1-3)]GlcNAc(b1-3)GalNAc
# Method in brief: as §1
# [12] = molecular target: Neu5Ac(a2-3)Gal(b1-4)[Fuc(a1-3)]GlcNAc(b1-6)[Gal(b1-3)]GalNAc
# Method in brief: as §1
# [13] = molecular target: Neu5Ac(a2-3)Gal(b1-4)[Fuc(a1-3)]GlcNAc(b1-6)[Neu5Ac(a2-3)Gal(b1-3)]GalNAc
# Method in brief: as §1
# [14] = molecular target: Neu5Ac(a2-3)Gal(b1-4)[Fuc(a1-3)]GlcNAc6S
# Method in brief: as §1
# [15] = molecular target: Neu5Ac(a2-3)Gal6S(b1-4)GlcNAc
# Method in brief: as §1
# [16] = molecular target: Neu5Ac(a2-3)Gal6S(b1-4)[Fuc(a1-3)]GlcNAc
# Method in brief: as §1
# [17] = molecular target: Neu5Ac(a2-3)GalNAc
# Method in brief: as §1
# [18] = molecular target: Neu5Ac(a2-3)GalNAc(b1-4)GlcNAc
# Method in brief: as §1
# [19] = molecular target: Neu5Ac(a2-3)[GalNAc(b1-4)]Gal(b1-4)Glc
# Method in brief: as §1
# [20] = molecular target: Neu5Ac(a2-3)[GalNAc(b1-4)]Gal(b1-4)GlcNAc
# Method in brief: as §1
# [21] = molecular target: Neu5Ac(a2-3)[GalNAc(b1-4)]Gal(b1-4)GlcNAc(b1-3)GalNAc
# Method in brief: as §1
# [22] = molecular target: Neu5Ac(a2-3)[Neu5Ac(a2-6)]GalNAc
# Method in brief: as §1
binder,measurement,setting,value
B1,glycan array binding signal (z-score),[1],-0.029
same,glycan array binding signal (z-score),[2],-0.358
same,glycan array binding signal (z-score),[3],1.22
same,glycan array binding signal (z-score),[4],0.002
same,glycan array binding signal (z-score),[5],-0.316
same,glycan array binding signal (z-score),[6],0.096
same,glycan array binding signal (z-score),[7],0.027
same,glycan array binding signal (z-score),[8],-0.322
same,glycan array binding signal (z-score),[9],-0.084
same,glycan array binding signal (z-score),[10],-0.268
same,glycan array binding signal (z-score),[11],0.48
same,glycan array binding signal (z-score),[12],0.648
same,glycan array binding signal (z-score),[13],-0.172
same,glycan array binding signal (z-score),[14],0.72
same,glycan array binding signal (z-score),[15],0.218
same,glycan array binding signal (z-score),[16],0.026
same,glycan array binding signal (z-score),[17],-0.181
same,glycan array binding signal (z-score),[18],-0.048
same,glycan array binding signal (z-score),[19],-0.154
same,glycan array binding signal (z-score),[20],-0.398
same,glycan array binding signal (z-score),[21],0.317
same,glycan array binding signal (z-score),[22],-0.391
